# Experimental data reported in publication PMC6212790.
# The list shows a part of the results. At the low end of the ranking the order means little.
# Biological target: T1, GST-Rok (full length) (UniProt O34857)
# T1 sequence: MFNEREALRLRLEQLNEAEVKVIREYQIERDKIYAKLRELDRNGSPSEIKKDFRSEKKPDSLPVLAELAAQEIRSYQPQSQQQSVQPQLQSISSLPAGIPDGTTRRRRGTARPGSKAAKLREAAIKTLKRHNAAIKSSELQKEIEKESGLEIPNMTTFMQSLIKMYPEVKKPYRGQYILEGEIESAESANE
# Assay: protein binding microarray;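 note: rank score from −0.5 (least bound) to 0.5 (best bound)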
# Conditions: Rok is a gene silencer of Bacillus subtilis; high values mean tight binding; most listed sequences are background and not binding sites; double strand, one strand shown
row,Sequence,binding signal [E-score]
1,ATAGGTAG,0.41
2,CTGTTCGC,-0.0909
3,AGCGACCA,-0.111
4,CCAAATCA,-0.0903
5,ACCGTACC,-0.0344
6,GTCAGCGA,-0.0654
7,CCTACAAA,0.139
8,AACAATCT,0.0279
9,AAAACACA,0.0481
10,ACTGCCCA,-0.0313
11,ATTGGCCA,-0.011
12,CAATCGAA,-0.171
13,AACGGCTC,-0.171
14,CTGCCGCC,-0.244
15,ACATTGAT,0.155
16,ATGTAAAC,0.0692
17,TATATAAA,0.399
18,AAATATGT,0.338
19,GATCAAGC,-0.204
20,ACAGTCGC,-0.184
21,CAATTTTC,0.0141
22,ACTGCGGC,-0.209
23,AAGACGGG,0.00471
24,AAGGACCA,-0.0732
25,CTTAGTCC,-0.0248

row,Sequence,binding signal [E-score]
1,ATTTCTAA,0.303
2,TATTTGCA,0.225
3,CAATGACA,0.12
4,CAGTTTTC,0.0134
5,AACTTTCA,0.223
6,TTCTGAAA,0.0783
7,GGACCTCC,-0.281
8,ACTCCCTG,-0.258
9,GATCAATA,0.157
10,AAGCCGAT,0.0669
11,TGACGCCA,-0.132
12,ATTGGGCC,-0.257
13,ACAACGCA,0.118
14,AAGATTAG,0.197
15,CCAGGAAC,-0.136
16,CCAATATC,0.153
17,ACTGGCAT,0.0143
18,AAAGGTAT,0.164
19,AAGGTCCG,-0.214
20,ACTTTGGA,-0.0953
21,ACGCCCGC,-0.324
22,ATCCAGGC,-0.117
23,AGCGTTAG,-0.127
24,AAGCTTAA,0.0855
25,CAGGGAGA,-0.315

row,Sequence,binding signal [E-score]
1,GTGCACAC,0.00113
2,GAATGTCA,0.0732
3,ATTGAGGG,-0.115
4,ATCTCGGA,0.177
5,GAGACTCC,-0.283
6,ATCACATA,0.3
7,GTTCATAA,0.00382
8,AAGCCTCA,-0.197
9,GGTTAAGA,0.0177
10,CATTCCGA,0.0879
11,CCGGTGAC,-0.0205
12,AGAATTTG,0.252
13,CCCCCCCG,-0.332
14,GGCGCTGA,-0.178
15,GAGGACAA,-0.115
16,ACTTCGAG,-0.0491
17,GTTGGGAA,-0.0644
18,GAGTTCCA,-0.102
19,GCAGGCCA,-0.389
20,GGTCTCAC,0.00944
21,GCAATTAA,0.19
22,CCCCGCGA,-0.312
23,GGGTGCAC,-0.252
24,GATACTCC,-0.0433
25,GGTGGTAC,-0.0613

row,Sequence,binding signal [E-score]
1,GCGACGAA,-0.014
2,GGCGATCA,0.102
3,CTGTCCAC,-0.116
4,AATGTCGA,-0.0305
5,CACAAGCA,-0.0543
6,CTAGAGTC,-0.1
7,CTCGCCCA,-0.293
8,AATAAAGA,0.141
9,AGTGGTAG,0.393
10,CTGATCGA,-0.0979
11,ACTATATA,0.453
12,ATAAGGGC,-0.166
13,TGCGGCCA,-0.152
14,AACTTAGT,0.251
15,AGGGTTCC,-0.246
16,AGGATGTG,0.00402
17,ACATTTAG,0.131
18,CAGATGTA,0.248
19,AAATCAAC,0.116
20,AGAGTCAT,0.0963
21,GATGCGGC,-0.198
22,AGGGGCCG,-0.413
23,CCCATGTC,-0.112
24,AGGGGTAA,-0.0832
25,CCTCAAAA,-0.258

row,Sequence,binding signal [E-score]
1,CATGGTAA,0.198
2,ATTGAAAG,-0.0678
3,CTTATCCC,-0.268
4,CGCTGAAA,-0.181
5,ACGTACAA,0.254
6,ACGCGTAC,-0.24
7,ATGAATCA,0.129
8,AAATCATA,0.221
9,ATTCAAAC,0.132
10,CGCATGTA,0.0901
11,GTCGCCGA,-0.1
12,GAGCATCA,-0.0826
13,ACTGAGTC,-0.21
14,AAAATATG,0.278
15,ATAAGTAA,0.267
16,ATCATTTA,0.334
17,CAATAATA,0.352
18,GCCGTGAA,-0.0714
19,TGATAAAA,0.27
20,CTCATGTC,-0.19
21,ACAACCGA,0.145
22,ATCTGAGA,-0.0192
23,AGAGGTTC,-0.315
24,AAGAGGCA,-0.367
25,TGGAAAAA,0.0512

row,Sequence,binding signal [E-score]
1,ACTGTAGC,0.192
2,CCGTCGAA,-0.144
3,AGAAGAGC,-0.29
4,AAGTAAAA,0.246
5,CTGACGAA,-0.0116
6,GTGGGCGA,-0.181
7,AGGGCACG,-0.378
8,ATAACGTC,0.21
9,CTATTACC,0.301
10,CCACGTCA,-0.121
11,ACTCCGAA,-0.0948
12,ACTTATGC,0.139
13,GGGCAAGA,-0.145
14,CTAGCGTC,-0.0555
15,ACTCTTCC,-0.0862
16,GCCCGCCC,-0.43
17,TTAGTAAA,0.237
18,CGCGATCA,-0.176
19,CCATCGAC,-0.12
20,ATGCAGCC,-0.187
21,AAACCCGT,-0.0147
22,GCGTAAAC,0.0765
23,AGTTCCGA,0.0258
24,TACGTATA,0.35
25,ACGGACCG,-0.149

row,Sequence,binding signal [E-score]
1,GTCCTATA,0.122
2,CTTTTGCC,-0.0119
3,ACCACCGA,0.0236
4,CCTGCCTC,-0.185
5,GCTTTTGA,-0.132
6,ATGACCAC,-0.0522
7,ATAACAAA,0.196
8,CGGAGCCC,-0.386
9,ACTAAGTC,0.132
10,CCCTTCTC,-0.29
11,CCGTAGTC,-0.295
12,CCTATGCC,-0.0371
13,AGCACTTG,-0.104
14,AGCCTGAC,-0.0307
15,CATTTCTC,0.0814
16,CGACGAGA,-0.0756
17,AACGAGGG,-0.183
18,CCCTCGCG,-0.279
19,AAGTTACG,0.182
20,ATAACGCC,-0.0927
21,AATGCCTC,-0.155
22,ACGAACAG,0.134
